SMILES strings stand for the structures. Out of some 310,000 compounds screened, about 2,200 (0.71%) showed an effect of 50% or more. Effects have a minus sign here. Some of the results follow.

Chain of human ether-à-go-go-related gene (hERG) potassium channel (Q12809 whole entry, looked up): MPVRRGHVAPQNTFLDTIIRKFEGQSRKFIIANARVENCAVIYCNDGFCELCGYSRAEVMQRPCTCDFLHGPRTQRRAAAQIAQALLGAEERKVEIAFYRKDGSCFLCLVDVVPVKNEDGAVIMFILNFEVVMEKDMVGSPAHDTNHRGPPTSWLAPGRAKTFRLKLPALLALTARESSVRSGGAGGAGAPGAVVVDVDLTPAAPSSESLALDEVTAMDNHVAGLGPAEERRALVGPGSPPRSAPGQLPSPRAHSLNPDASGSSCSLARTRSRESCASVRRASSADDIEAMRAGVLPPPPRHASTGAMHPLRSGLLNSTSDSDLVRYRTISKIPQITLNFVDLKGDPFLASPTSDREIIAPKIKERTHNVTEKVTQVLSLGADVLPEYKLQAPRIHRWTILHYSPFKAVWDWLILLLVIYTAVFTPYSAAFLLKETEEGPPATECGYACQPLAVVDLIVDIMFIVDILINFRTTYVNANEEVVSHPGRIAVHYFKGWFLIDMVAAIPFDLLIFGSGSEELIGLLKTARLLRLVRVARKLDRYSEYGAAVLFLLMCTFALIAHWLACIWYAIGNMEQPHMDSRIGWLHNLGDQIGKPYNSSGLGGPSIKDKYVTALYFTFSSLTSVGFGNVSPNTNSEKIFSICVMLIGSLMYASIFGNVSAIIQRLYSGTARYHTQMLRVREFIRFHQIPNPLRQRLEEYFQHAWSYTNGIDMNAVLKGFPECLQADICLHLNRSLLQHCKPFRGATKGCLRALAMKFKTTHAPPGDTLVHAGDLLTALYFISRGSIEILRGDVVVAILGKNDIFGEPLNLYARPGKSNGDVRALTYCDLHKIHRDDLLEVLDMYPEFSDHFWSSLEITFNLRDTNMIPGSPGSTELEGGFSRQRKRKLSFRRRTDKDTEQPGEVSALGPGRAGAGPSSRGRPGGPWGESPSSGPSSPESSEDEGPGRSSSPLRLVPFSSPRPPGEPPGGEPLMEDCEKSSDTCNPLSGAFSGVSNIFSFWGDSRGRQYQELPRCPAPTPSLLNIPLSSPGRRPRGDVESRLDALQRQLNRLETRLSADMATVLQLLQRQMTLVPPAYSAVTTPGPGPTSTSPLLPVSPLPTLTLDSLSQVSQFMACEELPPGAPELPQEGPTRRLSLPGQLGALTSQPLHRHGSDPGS

The assay has as its target human ether-à-go-go-related gene (hERG) potassium channel (human, UniProt Q12809). Kind of assay: primary screen, population patch clamp on CHO cells stably expressing hERG.
For `COc1ccc(C2C=C(c3cccs3)Nc3nc(CCCO)nn32)cc1` (centres unmarked), the “hERG current change (%, negative = inhibition) at 1uM” value is given as -10.3%.

With `Cc1c(C(=O)c2ccc(Cl)c([N+](=O)[O-])c2)c2ccccn2c1CCC#N`, the “hERG current change (%, negative = inhibition) at 1uM” value is recorded as -0.45%.

In the case of `CSCCC(NC(=O)c1ccco1)C(=O)NC1CCCCCC1` (centres unmarked), the “hERG current change (%, negative = inhibition) at 1uM” value was 7.94%.

Consider `CCOC(=O)c1ccc(S(=O)(=O)N2CCN(C(=O)CSc3nc4ccccc4o3)CC2)cc1`, for which the “hERG current change (%, negative = inhibition) at 1uM” value came to 3.06%.

As for `COc1ccc(-c2cc(=[NH+]c3ccccc3)c3cc(C)ccc3o2)cc1.[O-][Cl+3]([O-])([O-])[O-]`, the “hERG current change (%, negative = inhibition) at 1uM” value was 14%.

Consider `CCNS(=O)(=O)c1ccc(CCC(=O)N2CCCC2)cc1`, for which the “hERG current change (%, negative = inhibition) at 1uM” value turned out to be 1.09%.

With `COc1ccc(CNC(=O)C(c2ccco2)N(Cc2cccs2)C(=O)Cc2cccs2)cc1` (centres unmarked), the “hERG current change (%, negative = inhibition) at 1uM” value is recorded as 11.5%.

`CN1CCN(C(=O)c2cc3c(n(-c4ccccc4)c2=O)CC(C)(C)CC3=O)CC1`: the “hERG current change (%, negative = inhibition) at 1uM” value is 13.6%.

Regarding `Cc1cc(C)nc(NNC2=CC(=[N+]3CCCC3)CCC2)n1.[I-]`, the “hERG current change (%, negative = inhibition) at 1uM” value is -4.51%.

`Cc1ccccc1Nc1nc(-c2cccnc2)cs1`: the “hERG current change (%, negative = inhibition) at 1uM” value was found to be 19.3%.

Take `COc1ccc(N(CC(=O)NC2CCCC2)C(=O)Cn2nnc(-c3ccc(F)cc3)n2)cc1`: the “hERG current change (%, negative = inhibition) at 1uM” value worked out at 8.35%.

On to `CC(=O)Oc1ccccc1C1=NN(C(C)=O)C(c2ccccc2)C1` (centres unmarked), for which the “hERG current change (%, negative = inhibition) at 1uM” value turned out to be 0.781%.

For the compound `COc1ccc(/C=C(\C#N)C(=O)Nc2cccnc2)cc1`, the “hERG current change (%, negative = inhibition) at 1uM” value is recorded as 5.31%.

For `O=c1[nH]nc(Cc2ccc(Cl)cc2)c2ccccc12`, the “hERG current change (%, negative = inhibition) at 1uM” value worked out at 14%.

Turning to `CSc1ccc(CN(C)C(=O)c2cc(Cl)c3c(c2)OCCO3)cc1`, the “hERG current change (%, negative = inhibition) at 1uM” value is recorded as 9%.

Take `O=C(CCNC(=O)c1ccc([N+](=O)[O-])cc1)Nc1ccc(F)cc1`: the “hERG current change (%, negative = inhibition) at 1uM” value is recorded as -5.13%.

For `COc1ccc(-c2nc(=S)c3c(n2CCN2CCOCC2)CC(C)(C)OC3)cc1`, the “hERG current change (%, negative = inhibition) at 1uM” value is 9.18%.

As to `O=C(N/N=C/c1ccncc1)NC12CC3CC(CC(C3)C1)C2`, the “hERG current change (%, negative = inhibition) at 1uM” value is listed as -1.81%.

Consider `NC(=O)c1cc2ccccc2o/c1=N\NC(=O)c1ccc(F)cc1`, for which the “hERG current change (%, negative = inhibition) at 1uM” value was 0.506%.

`CSC1=NP(=S)(SC)N2CCCC2=C1C#N` (centres unmarked): the “hERG current change (%, negative = inhibition) at 1uM” value is listed as 6.13%.

As to `Cc1ccccc1C(=O)O/N=C(\N)Cc1cccs1`, the “hERG current change (%, negative = inhibition) at 1uM” value is 13.7%.

Consider `COc1ccc(CN2CCNC(=O)C2CC(=O)NCCCn2cccn2)c(OC)c1` (centres unmarked), for which the “hERG current change (%, negative = inhibition) at 1uM” value turned out to be 7.05%.

Regarding `CCCCOc1ccc(/C=C/C(=O)NCCc2nc3ccccc3[nH]2)cc1`, the “hERG current change (%, negative = inhibition) at 1uM” value is reported as -8.64%.

For `O=C(N/N=C/CCc1ccccc1)c1ccccc1`, the “hERG current change (%, negative = inhibition) at 1uM” value was found to be 3.56%.

For `CCC(Sc1nccn1C)C(=O)Nc1nnc(C)s1` (centres unmarked), the “hERG current change (%, negative = inhibition) at 1uM” value is listed as 4.96%.

As to `O=C(NC(Cc1ccccc1)c1nc2ccccc2[nH]1)c1cccc([N+](=O)[O-])c1` (centres unmarked), the “hERG current change (%, negative = inhibition) at 1uM” value is reported as 16.6%.

Take `Cc1ccc(CN2[C@@H](CC(C)C)COCCS2(=O)=O)cc1`: the “hERG current change (%, negative = inhibition) at 1uM” value was determined as 12.4%.

As to `Cc1ccc(NC(=O)c2cccc(NC3=NC4CS(=O)(=O)CC4S3)c2)cc1C` (centres unmarked), the “hERG current change (%, negative = inhibition) at 1uM” value was determined as 7.38%.

`Cc1ccc2cc(/C=N/NC(=O)CN3CCOCC3)c(Cl)nc2c1`: the “hERG current change (%, negative = inhibition) at 1uM” value is 0.498%.

Turning to `CCCCn1nnc(NC(=O)c2sc3cc(Cl)ccc3c2Cl)n1`, the “hERG current change (%, negative = inhibition) at 1uM” value worked out at 17.6%.

On to `CCc1ccc(NC2=NC(C(=O)c3ccccc3)CC(=O)N2)cc1` (centres unmarked), for which the “hERG current change (%, negative = inhibition) at 1uM” value was determined as 3.9%.

Take `COc1ccc(CN(C)S(=O)(=O)c2nnc(NC(=O)c3ccc(C)cc3)s2)cc1OC`: the “hERG current change (%, negative = inhibition) at 1uM” value worked out at 14.5%.

Turning to `COc1ccc(C(=O)N2CCCN(C)CC2)cc1S(=O)(=O)N1CCCc2ccccc21`, the “hERG current change (%, negative = inhibition) at 1uM” value is reported as 1.09%.

For the compound `CN(C)S(=O)(=O)c1ccc(NC(=O)CN2CCCCCC2)cc1`, the “hERG current change (%, negative = inhibition) at 1uM” value worked out at 42.9%.

On to `CCOC(=O)N1CCN(C(=O)CSc2nc(=O)n3ccccc3n2)CC1`, for which the “hERG current change (%, negative = inhibition) at 1uM” value came out at 14.6%.

For `Nc1cccc(-c2cn3cc(C(F)(F)F)cc(Cl)c3n2)c1`, the “hERG current change (%, negative = inhibition) at 1uM” value was 2.23%.

On to `CCC1CCCCN1CCCNC(=O)C1CCCN(c2nn3c(=O)cc(C)nc3s2)C1` (centres unmarked), for which the “hERG current change (%, negative = inhibition) at 1uM” value was determined as 26.6%.

Regarding `COCCN(C(=O)CSc1nnc(-c2ccc(C(C)(C)C)cc2)n1N)c1c(N)n(CC(C)C)c(=O)[nH]c1=O`, the “hERG current change (%, negative = inhibition) at 1uM” value amounted to 9.94%.

Regarding `CN(C)c1ccc(/C=C2\CCC/C(=C\c3ccccc3)C2=O)cc1`, the “hERG current change (%, negative = inhibition) at 1uM” value is -0.22%.

Consider `O=C(NCc1ccncc1)C(=O)NCC(c1ccco1)N1CCN(c2ccccc2F)CC1` (centres unmarked), for which the “hERG current change (%, negative = inhibition) at 1uM” value was determined as 9.04%.

For the compound `O=C(c1cccc(S(=O)(=O)N2CCCC2)c1)N1CCN(c2ccccc2)CC1`, the “hERG current change (%, negative = inhibition) at 1uM” value is on record as 5.25%.

For the compound `N#C/C(=C\c1ccccc1C(F)(F)F)C(=O)Nc1ccccc1F`, the “hERG current change (%, negative = inhibition) at 1uM” value is given as 7.57%.

On to `CCOC(=O)C1(CCOc2ccccc2)CCN(Cc2ccc(-n3cccn3)cc2)CC1`, for which the “hERG current change (%, negative = inhibition) at 1uM” value was -37.8%.

For `COC(=O)c1c(-c2ccc(SC)cc2)sc2ccccc12`, the “hERG current change (%, negative = inhibition) at 1uM” value is 15.9%.

The values above are taken from publication PMC4336329 (PLoS ONE, 2015).
